From the supplement of paper PMC10126150
Values marked as one replicate rest on one cluster of the flow cell; about a third of the high ones do not repeat.

tested on: ATP; assay: switch fluorescence ratio, 500 uM ATP over buffer (Cy3 cluster intensity, sum of 5 cycles each) (fold (ratio)); higher = stronger signal-on switching upon ATP binding; sequences stand for … in TCGTCGGCAGCGTCAGATGTGTATAAGAGACAGTTTTTTTTTTTTTTTTTTTTTTTTT…TC; conditions: aptamer strand: ATP DNA aptamer (quencher-CACCTGGGGGAGTATTGCGGAGGAAGG + anchor), 100 nM annealed; ATP concentration: 500 uM; one replicate
Outline: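 Switching-strand clusters labelled with Cy3 on a modified Illumina MiSeq flow-cell were annealed to 100 nM quencher-labelled ATP aptamer, imaged in selection buffer, and re-imaged after 15 min with 500 uM ATP at 22 °C. This was done over five cycles with NaOH stripping and re-annealing in between. The fluorescence ratio is summed target-cycle over summed buffer-cycle Cy3 intensity per cluster, averaged per switch-domain sequence, excluding clusters outside 100-1000 RFU.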
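Further: ATP exposure 15 min at 22 °C before imaging.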

Sequence	switch fluorescence ratio
GTAAGTTCAG	1.02
TGAGGACTAT	1.02
TGGGACGGTG	0.961
CCGGGGTAAT	1.83
AATCAGGC	0.974
AGAGAGGAGC	1.04
GACGAAGTAG	1.11
ATTGTAAGCA	1.04
AAACGGTAT	1.09
CGCTCTCCCT	3.04
GAAGATGCAG	0.913
TTAAGGAGGC	1.02
GACCCCACCC	1.24
TCCTAAGAA	1
TCCGGTGTAG	1.04
GAAAAAAACC	0.992
GCGTTGCTTT	0.972
GCCTTATAA	0.993
GGCCTTTCCT	1.39
GGCTGAGCT	0.927
CACAAGAGAC	1.28
AGCGATCTCT	1.32
ACTATCCGGC	1.02
TGATCATTTC	1.04
ACGGGTGATC	1.05

Sequence	switch fluorescence ratio
CTTGAGGATA	0.998
CTGTTTTTGG	1.01
GTATTACGAG	1.02
GGCCGAGAAG	1.04
CGCGGCGCCC	0.989
TGTCCGGCTT	0.986
GAGTACTCAT	0.99
TGCTTCGCTG	1.16
GGAACAGGGA	0.955
GGATGTATCC	0.97
TCAATGCTGT	1.01
AGACATGGTG	0.958
TAACCGGGGT	0.983
GACTGCTAGC	1.12
GTTAATCAGT	1.01
TTCGTGTTAA	0.988
ATGCCGGTCA	0.961
TAATTACACC	1.07
CTTCCTTTTG	1.04
TTATTTAGA	0.998
AGTGATTATT	1
ACGAGTTTAG	1.01
CAATTTTGAG	1.01
CTCTGCCGAC	2.77
ATTTAGTTCA	1.04

Sequence	switch fluorescence ratio
GCCTTTATTC	0.904
AAGAGTTCTA	1.04
AGTGGCTAGA	0.98
ACGCGCGCTT	0.997
GCAGAGGAGA	1.05
ACATAAAGCT	1.02
CACCAGACTG	1.06
GTAAGGTTCG	0.951
CCTTCCCCCT	1.69
ACGCCGTGAC	1.28
GGACACATTG	1.04
TACGGCAGGT	1.04
GAAGGCTGGG	1.01
CTTATCGTTA	1
TAAGTAGATG	1.01
ACTTGCTTCG	1.22
AGGATTACTT	1.06
GAGTCTTCTT	1.02
GTGCAAGCTA	1.01
CTGTATGCGT	1.01
TGTTCGAAT	1
AGATTTTCAG	1.03
CGTCGCATCG	1.01
GCAATTTCTT	1.02
AGCGGGACAT	0.99

Sequence	switch fluorescence ratio
CTACCCATTG	1.02
AAATCCAAAT	1.02
GCACAGATGG	1.06
GCTTTTAGCT	0.983
CGACGATCAT	1.08
TTTATTGTA	0.945
TGTTTTGTAC	1.07
CAAGACCTGC	1.03
CCACCCAGAA	1.18
TGGTTTAAAC	1.02
GACTCAACCT	1.71
TCCTCTGGTG	3.31
ATAAATCGCA	1.01
GTCGCTTCGC	1.06
GACAATCGGT	1.03
TGGATTAGCG	0.966
GAAATAGCAA	1.46
ATTAATCGAG	1.02
GTCAGTGGTT	0.96
TTTCCACCCA	1.06
TGGCGTAATG	0.949
CATAAATTT	0.974
AGTTATCTGG	0.974
TTACTTTTAA	0.984
AAAGGGTTAT	0.956
